# Laboratory results taken from PMC4336329 (PLoS ONE, 2015).
# About 2,200 (0.71%) of roughly 310,000 compounds showed an effect of 50% or more. Effects have a minus sign here. The list shows a part of the results.
# Target: human ether-à-go-go-related gene (hERG) potassium channel (human, UniProt Q12809)
# Test: primary screen, population patch clamp on CHO cells stably expressing hERG
# human ether-à-go-go-related gene (hERG) potassium channel, sequence (Q12809 whole entry, looked up): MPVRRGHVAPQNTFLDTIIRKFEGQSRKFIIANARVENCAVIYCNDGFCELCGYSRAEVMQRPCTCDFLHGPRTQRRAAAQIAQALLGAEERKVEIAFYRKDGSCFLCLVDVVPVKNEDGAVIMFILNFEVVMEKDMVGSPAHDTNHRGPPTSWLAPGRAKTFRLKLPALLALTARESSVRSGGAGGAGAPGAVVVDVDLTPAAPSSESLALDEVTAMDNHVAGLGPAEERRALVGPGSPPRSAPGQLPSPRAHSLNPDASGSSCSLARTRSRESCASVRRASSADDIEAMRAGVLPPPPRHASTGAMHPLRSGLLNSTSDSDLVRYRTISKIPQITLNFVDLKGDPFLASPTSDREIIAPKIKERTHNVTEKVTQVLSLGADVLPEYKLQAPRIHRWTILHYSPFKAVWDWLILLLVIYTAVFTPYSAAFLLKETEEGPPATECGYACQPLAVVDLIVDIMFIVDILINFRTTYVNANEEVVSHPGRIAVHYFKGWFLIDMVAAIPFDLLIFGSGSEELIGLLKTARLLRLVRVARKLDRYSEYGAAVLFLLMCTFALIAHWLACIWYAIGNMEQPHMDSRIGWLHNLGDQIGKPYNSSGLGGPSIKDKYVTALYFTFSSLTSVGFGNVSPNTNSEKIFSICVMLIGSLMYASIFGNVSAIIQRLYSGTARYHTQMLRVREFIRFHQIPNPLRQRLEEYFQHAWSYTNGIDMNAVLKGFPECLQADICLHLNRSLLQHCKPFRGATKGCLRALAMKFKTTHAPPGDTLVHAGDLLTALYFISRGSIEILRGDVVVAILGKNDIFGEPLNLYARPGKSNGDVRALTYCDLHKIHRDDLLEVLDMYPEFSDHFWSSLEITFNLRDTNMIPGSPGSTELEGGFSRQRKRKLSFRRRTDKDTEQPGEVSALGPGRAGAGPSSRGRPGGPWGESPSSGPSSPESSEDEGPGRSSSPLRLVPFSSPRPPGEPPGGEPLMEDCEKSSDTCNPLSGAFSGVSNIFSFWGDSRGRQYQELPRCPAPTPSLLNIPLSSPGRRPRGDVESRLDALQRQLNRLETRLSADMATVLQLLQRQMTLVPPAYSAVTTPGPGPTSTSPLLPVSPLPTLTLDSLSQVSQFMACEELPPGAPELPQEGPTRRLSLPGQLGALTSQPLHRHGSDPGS
row,Compound,"hERG current change (%, negative = inhibition) at 1uM"
1,Cn1c(=O)n(CC(=O)NCC2CCCO2)c(=O)c2c3c(sc21)COC(C)(C)C3 (stereo not shown),8.58%
2,CCN(C(=O)CSc1nc2ccccc2c(=O)n1-c1cccc(C)c1)C1CCS(=O)(=O)C1 (stereo not shown),7.41%
3,Cc1cc(NC(=O)CSc2nnnn2-c2ccc(F)cc2)no1,17.4%
4,Cc1ccc(C(=O)NCC(=O)NCc2cc(=O)n(C)c(=O)n2C)cc1,22.8%
5,COc1ccc(CNC(=O)c2cc(-n3cnnc3)ccc2Cl)cc1,-5.99%
6,C=CCN1CCN(C(c2ccccc2)c2nnnn2CCC(C)C)CC1.Cl (stereo not shown),-4.18%
7,Cc1ccc(N(CC(=O)N/N=C/c2ccc(OCC(N)=O)cc2)S(C)(=O)=O)cc1Cl,10.5%
8,NC(=O)/C(=C/c1cccnc1)NC(=O)c1ccccc1,7.35%
9,Cc1ccc2nc(-c3ccc(SCC(=O)Nc4nnc(C)s4)nc3)[nH]c2c1,12.3%
10,COc1ccc(CN2CCNC(=O)C2CC(=O)N(C)CC2CCOCC2)c(F)c1 (stereo not shown),13.4%
11,Cc1cc(C)n(CC(=O)NC2CCCN(Cc3ccc(Cl)cc3)C2)n1 (stereo not shown),8.85%
12,Br.CCN(CC)CCN1Cc2ccccc2C1=N,5.88%
13,COc1ccc([C@H]2CC(=O)C=C(c3ccc(CO)cc3)C2)cc1,12.6%
14,COc1cc(/C=N/n2nnnc2N)ccc1O,-10.6%
15,COC(=O)C(C)Oc1ccc(Oc2nc(Cl)ccc2Cl)cc1 (stereo not shown),9.15%
16,CC1(C)c2[nH]c3ccccc3c2C[C@H]2C(=O)N(CCCCCO)CC(=O)N21,12.3%
17,CN(C)C=O.CNC(=O)CSc1nc2nc(C)cc(C)n2n1,8.43%
18,Cc1ccc(NC(=O)COC(=O)c2ccc(S(=O)(=O)NCc3ccco3)cc2)cc1,7.78%
19,O=C(NCCc1c[nH]c2ccccc12)c1ccc2[nH]c(=O)c(=O)[nH]c2c1,12.1%
20,Cc1cc(SCc2cccc(C(F)(F)F)c2)nc(=O)[nH]1,9.6%

row,Compound,"hERG current change (%, negative = inhibition) at 1uM"
1,O=C(c1ccccc1)c1coc2c1C(=O)c1ccccc1C2=O,3.99%
2,O=C(CN1CCN(C(=O)c2c(F)cccc2F)CC1)Nc1ccccc1C(F)(F)F,3.09%
3,O=C(Nc1ccc2c(c1)OCO2)Nc1ccccc1F,9.14%
4,Cc1cc(NC(=O)Cc2ccsc2)ccc1Br,14.1%
5,COc1cc(CCCN2C(=S)NC[C@@H]2CCCCN)cc(OC)c1OC,12.9%
6,CCOc1cccc2sc(=NC(=O)CCS(=O)(=O)c3ccc(F)cc3)n(C)c12,4.6%
7,CCOC(=O)C1CCN(C(=O)c2ccco2)CC1,11.5%
8,CCOC(=O)COc1cc(Br)c(/C=N/Nc2ccccc2)cc1OC,3.72%
9,Cc1nn(C)c(C)c1S(=O)(=O)N1CCC(C(=O)NC2CCCCCC2)CC1,13.3%
10,O=c1[nH]c2ccc(S(=O)(=O)N3CCN(Cc4ccccc4)CC3)cc2[nH]c1=O,3.32%
11,O=C(Nc1ccc(N2CCOCC2)cc1)c1ccc2c(c1)OCO2,16.7%
12,COc1cc(/C=C2\NC(=S)N(C)C2=O)ccc1OCc1ccccc1F,6.67%
13,Cc1ccc(C(=O)/C=C\Nc2ccc(C)c(C)c2)cc1,-8.32%
14,COc1ccc(Cc2nc3ccc(C(=O)N4CCCC4)cc3o2)cc1,8.3%
15,O=C(O)c1nn(CCSc2ccccc2F)c(=O)c2ccccc12,-2.2%
16,CCO[C@@H]1OC(C(=O)N2CCOCC2)=C[C@H](C)[C@H]1CCCO,14.6%
17,O=c1c2ccccc2nc(/C=C/c2c[nH]c3ccccc23)n1CCO,18.5%
18,CCN(CC)S(=O)(=O)c1cc(C(=O)Nc2ccc(Cl)cn2)ccc1C,-4.67%
19,O=C(Nc1nc(-c2cccs2)cs1)c1cccc(S(=O)(=O)N2CCCCCC2)c1,15.5%
20,OCCN1CCN(c2ncnc3nc[nH]c23)CC1,9.59%

row,Compound,"hERG current change (%, negative = inhibition) at 1uM"
1,O=C(NCCNC(=O)c1ccccc1O)c1ccccc1O,15.7%
2,Cc1ccc(N(C)C(=O)CN(C)S(=O)(=O)c2ccc3c(c2)n(C)c(=O)c(=O)n3C)cc1,-2.86%
3,Cc1ccccc1CN1CCC(n2nccc2NC(=O)CCOc2ccccc2)CC1,-5.06%
4,Cn1ccnc1-c1nnn(-c2ccc(Cl)c(Cl)c2)n1,15%
5,Cc1cc(O)c(/C=N/Nc2ccccc2Cl)c(=O)o1,2.65%
6,C=CCNC(=O)COc1ccccc1C#N,-7.66%
7,CC(Sc1nc(-c2ccco2)nc2c1c(=O)n(C)c(=O)n2C)C(=O)O (stereo not shown),7.48%
8,CCOc1ccccc1NC(=O)C1CC(=O)n2ncnc2N1 (stereo not shown),-6.73%
9,CCOC(=O)Cn1ccc(-c2ccccc2)c(C#N)c1=O,17.2%
10,Cn1nc([N+](=O)[O-])nc1Sc1nnc(-c2ccccc2)o1,-0.0317%
11,COc1ccc(N2CCOCC2)c(NC(=O)c2cccc3ccccc23)c1,13.3%
12,COc1ccc(-n2ncc3c2CC(C)(C)CC3NC(=O)c2oc(C)cc2C)cc1 (stereo not shown),16.2%
13,O=C(Nc1nnc(-c2ccccc2SCc2ccccc2F)s1)Nc1ccccc1F,4.17%
14,COc1ccccc1CNC(=O)C1CCC(CNS(=O)(=O)c2ccc(F)cc2)CC1 (stereo not shown),9.65%
15,CCC1CCc2c(sc(NC(=O)c3cnccn3)c2C(N)=O)C1 (stereo not shown),14.6%
16,COc1ccc(NC(C)=O)cc1NC(C)C(=O)Nc1ccccc1F (stereo not shown),14.1%
17,CC(C)NC(=O)c1cccc(Br)c1,9.26%
18,CN(Cc1ccco1)C(=O)C(Cc1ccccc1)NS(=O)(=O)c1ccc2c(c1)CCC(=O)N2 (stereo not shown),-12%
